Measurements as given in PMC4336329 (PLoS ONE, 2015).
The campaign covered roughly 310,000 compounds. About 14,000 (4.5%) showed an effect of 50% or more. The effect is printed as a negative number. This is one part of the list.

Biological target: human ether-à-go-go-related gene (hERG) potassium channel (human, UniProt Q12809)
Experiment: primary screen, population patch clamp on CHO cells stably expressing hERG
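Also: peak tail current of the secondary pulse compared with the same well before compound.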

Chain of human ether-à-go-go-related gene (hERG) potassium channel (Q12809 whole entry, looked up): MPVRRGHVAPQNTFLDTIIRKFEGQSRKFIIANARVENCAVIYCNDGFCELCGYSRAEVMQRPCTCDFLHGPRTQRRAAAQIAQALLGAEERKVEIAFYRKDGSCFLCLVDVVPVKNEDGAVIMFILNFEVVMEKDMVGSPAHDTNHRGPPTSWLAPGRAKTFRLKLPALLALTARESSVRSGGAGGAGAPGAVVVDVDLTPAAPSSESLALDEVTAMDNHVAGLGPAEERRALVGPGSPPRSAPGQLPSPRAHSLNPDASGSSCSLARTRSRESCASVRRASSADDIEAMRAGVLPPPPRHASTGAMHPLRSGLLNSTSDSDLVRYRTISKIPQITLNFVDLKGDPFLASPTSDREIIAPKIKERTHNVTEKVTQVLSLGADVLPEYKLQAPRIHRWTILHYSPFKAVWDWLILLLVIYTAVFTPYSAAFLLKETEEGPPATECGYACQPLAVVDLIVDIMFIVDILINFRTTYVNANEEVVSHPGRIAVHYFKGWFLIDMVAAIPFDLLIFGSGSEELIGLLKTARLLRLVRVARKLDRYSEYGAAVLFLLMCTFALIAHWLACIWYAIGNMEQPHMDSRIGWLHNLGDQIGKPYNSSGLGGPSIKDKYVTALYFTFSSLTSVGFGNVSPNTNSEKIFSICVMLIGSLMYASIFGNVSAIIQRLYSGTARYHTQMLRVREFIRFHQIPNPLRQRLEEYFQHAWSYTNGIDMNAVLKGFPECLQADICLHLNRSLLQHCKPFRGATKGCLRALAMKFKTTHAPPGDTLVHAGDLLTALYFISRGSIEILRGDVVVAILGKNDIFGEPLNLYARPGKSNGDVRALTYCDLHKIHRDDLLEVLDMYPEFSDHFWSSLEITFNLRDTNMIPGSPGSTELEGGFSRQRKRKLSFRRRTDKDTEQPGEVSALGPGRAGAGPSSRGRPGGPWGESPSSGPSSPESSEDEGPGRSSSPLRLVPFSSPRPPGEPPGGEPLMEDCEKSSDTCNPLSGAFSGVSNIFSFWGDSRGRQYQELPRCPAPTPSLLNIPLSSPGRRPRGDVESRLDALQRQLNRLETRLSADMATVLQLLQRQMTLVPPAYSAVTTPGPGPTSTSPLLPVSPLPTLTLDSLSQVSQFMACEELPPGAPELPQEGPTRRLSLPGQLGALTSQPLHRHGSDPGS

| Compound | hERG current change (%, negative = inhibition) at 10uM |
| --- | --- |
| Cc1onc(-c2c(Cl)cccc2Cl)c1C(=O)N1C(C)CCCC1C (stereo not drawn) | 1.05% |
| CCOC(=O)N1CCN(CC(=O)Nc2ccc(Oc3ccccc3)cc2)CC1 | -50.1% |
| CCOC(=O)c1cccc(NC(=O)CCc2c(C)nc3ncnn3c2C)c1 | -27.1% |
| Cc1onc(-c2ccccc2)c1C(=O)N1CCCN(C(=O)c2c(-c3ccccc3)noc2C)CC1 | -13.9% |
| O=c1ccn(-c2cccc(C(F)(F)F)c2)nc1-c1ccn(-c2ccccc2F)n1 | -47.2% |
| O=C(CSc1nc2ccccc2c(=O)n1Cc1ccco1)N1CCN(c2ccccc2)CC1 | -74.9% |
| COc1ccc(CNCCC(c2ccccc2)c2ccc3c(c2)OCO3)cc1.Cl (stereo not drawn) | -75% |
| COc1cc(S(=O)(=O)N2CCN(Cc3cccs3)CC2)ccc1NC(C)=O | -14.6% |
| O=[N+]([O-])c1nn(-c2cccc(Cl)c2)n(O)c1=NCc1cccnc1 | -18.3% |
| O=C(NCc1ccon1)C1CCC(=O)N(Cc2cccc(C(F)(F)F)c2)C1 (stereo not drawn) | 8.13% |
| O=C(Nc1ccc2c(c1)Cc1ccccc1-2)c1ccc(Br)o1 | 1.68% |
| Cc1ccccc1OCC(=O)NNC(=O)c1ccc(-n2cncn2)c([N+](=O)[O-])c1 | -6.3% |
| O=C(Nc1ccc2oc(-c3ccncc3)nc2c1)c1ccc2c(c1)OCO2 | 1.44% |
| O=c1cccc2n1CC1CC2CN(Cc2c(F)cccc2Cl)C1 (stereo not drawn) | -26.2% |
| Cc1cccc(N(CC(=O)NC(C)C)C(=O)c2ccc(N3CCCC3)nc2)c1 | 4.32% |
| CC(C)NC(=O)CCCc1ccccc1 | -6.5% |
| O=C(Nc1ccc(Oc2ccccc2)cc1)c1ccc(Cn2c(=O)[nH]c3ccsc3c2=O)cc1 | -2.52% |
| COC(=O)[C@@H]1C[C@@]2(O)[C@H](O)[C@H](O)[C@H](O)C[C@H]2N1CC1CC1 | 6.98% |
| COc1ccc(/C=N/c2nc3ccccc3n2CCN2CCCCC2)cc1OC | -14.3% |
| O=C1NC(=O)N(c2ccccc2)C1=O | 19.9% |
| Cc1cccc(NC(=O)N2CCCCCC2)c1C | 13.2% |
| Cc1noc(C)c1COc1ccccc1C(=O)Nc1ccc(C(N)=O)cc1 | -9.65% |
| C=CCn1c(SCC(=O)Nc2ccc(C)cc2C)nnc1-c1cccnc1 | -14.2% |

| Compound | hERG current change (%, negative = inhibition) at 10uM |
| --- | --- |
| Cc1cccc(Nc2ccc(NCc3ccccc3)nn2)c1 | -51.8% |
| NC(=O)C1CCN(S(=O)(=O)Cc2ccccc2Cl)CC1 | 14.8% |
| C=CCN(C(C)=O)C1CC(=O)N(c2ccc(OCCC)cc2)C1=O (stereo not drawn) | -12.1% |
| COc1ccc(-c2cc(=O)oc3cc(OCC(=O)N4CCOCC4)ccc23)cc1 | -42.1% |
| O=C(NCCN1C(=O)CCC1=O)c1ccncc1 | 2.52% |
| O=C(NN1C(=O)c2ccccc2NC1c1ccc([N+](=O)[O-])o1)c1ccc([N+](=O)[O-])cc1 (stereo not drawn) | -65.5% |
| CCOc1ccc(C)cc1S(=O)(=O)NC1CCCCCC1 | -3.2% |
| COc1ccccc1-n1c(-c2ccc(Cl)cc2)c[nH]c1=S | 6.03% |
| CC1CCC(C)(NS(=O)(=O)OCC(Cl)(Cl)Cl)CC1 (stereo not drawn) | -21.7% |
| O=C(Nc1ccc(NC(=O)c2ccco2)c(Cl)c1)c1ccc2c(c1)OCCO2 | 10.1% |
| COc1ccccc1C(=O)NCCn1ccc2ccccc21 | -7.18% |
| O=C(O)c1ccc(OC(F)(F)C(F)C(F)(F)F)cc1 (stereo not drawn) | 13.7% |
| COc1cccc(NC(=S)Nc2cc(C)cc(C)n2)c1 | 2.06% |
| NS(=O)(=O)c1ccc(CCNC(=O)CN2CCN(c3ccccc3O)CC2)cc1 | 13.5% |
| O=C(CSc1nc2c(oc3ccccc32)c(=O)n1CC1CCCO1)NCc1ccccc1 (stereo not drawn) | -15.8% |
| CC1(C)OC(=O)C(=CNc2ncccn2)C(=O)O1 | 1.3% |
| COc1ccc(NC(=O)NC2(C(=O)N3CCN4CCCC4C3)CCCCC2)cc1 (stereo not drawn) | 12.1% |
| COCCN1C(=O)N[C@@H](c2ccccc2)[C@@H](C(=O)OC)[C@H]1C | 2.28% |
| O=C(CCN1C(=O)C2CCCCC2C1=O)Nc1nc(-c2ccccc2)cs1 (stereo not drawn) | 4.09% |
| CCc1ccc(C(C(=O)NC2CCCCC2)N(C(=O)c2ccccn2)c2cccnc2)cc1 (stereo not drawn) | 17.2% |
| Nc1cccc(S(=O)(=O)Nc2ccc(Br)cc2)c1 | -2.08% |
| O=C(COC(=O)c1ccc(Cl)s1)c1ccc[nH]1 | 0.085% |
| Cc1cc(NC(=O)CSc2nc3ccc(Cl)cc3[nH]2)no1 | 9.82% |

| Compound | hERG current change (%, negative = inhibition) at 10uM |
| --- | --- |
| CCOC(=O)c1c(CN(C)C)n(C)c2ccc(OC(C)=O)cc12.Cl | -41.3% |
| CC(=O)N(CN1C(=O)c2ccc([N+](=O)[O-])cc2C1=O)c1ccc(F)cc1 | -1.91% |
| Cc1ccc(C)n1-c1ccc(C(=O)NN)cc1 | 16.8% |
| CC(C)Oc1ccc(CCNC(=O)C2CCC(=O)N(C3CCCCCC3)C2)cc1 (stereo not drawn) | 7.05% |
| O=c1c(Cc2ccccc2)c(O)ccn1Cc1ccco1 | 17.8% |
| CNC(=S)NNC(=O)c1sccc1OCc1ccccc1 | 17.8% |
| Cc1ccc(OC(=O)c2ccc(N3CCOCC3)c([N+](=O)[O-])c2)cc1 | -4.31% |
| O=C(N/N=C/c1ccccn1)c1ccc(Cl)c(Cl)c1 | -11.2% |
| CCOC(=O)c1oc2cc(C)cc(O)c2c(=O)c1-c1csc(C)n1 | 1.3% |
| CS(=O)(=O)Nc1ccc(C(=O)Nc2ccccc2C(=O)N2CCCC2)cc1 | -26.8% |
| O=C(O)CC(c1ccc(F)cc1F)N1Cc2ccccc2C1=O (stereo not drawn) | 22.3% |
| COc1ccc(S(=O)(=O)N(C)C)cc1NCC(=O)Nc1cccc2ccccc12 | -15.4% |
| CCOC(=O)N1CCN(Cc2ccccc2F)CC1 | 2.68% |
| CCCCNC(=O)c1onc(CCl)c1C(=O)OC | 2.21% |
| O=C(O)CCNc1cc(N2CCN(C(=O)c3ccco3)CC2)c2noc3c2c1C(=O)c1ccccc1-3 | 10.3% |
| CC(Sc1nc(N)c2c3c(sc2n1)CSC(C)(C)C3)C(=O)Nc1ccccc1 (stereo not drawn) | -4.32% |
| CC(Oc1ccc(Cl)cc1Cl)C(=O)NCCCN1CCOCC1 (stereo not drawn) | -1.16% |
| O=C(NCCCO)C(=O)Nc1cc2c3c(c1)CCN3C(=O)CC2 | 11.8% |
| Cc1nc2c(sc3nc(N4CCOCC4)c4c(c32)CC(C)(C)OC4)c(-c2ccccc2)c1C(=O)O | 11.4% |
| CC1=CC=CN2CC(O)CN=C12.Cl (stereo not drawn) | 9.41% |
| Cl.NCC1CC2c3ccccc3C1c1ccccc12 (stereo not drawn) | 15.2% |
| CC(C)CN1C(=O)/C(=C/c2ccco2)NC1=S | 9.25% |
| COc1ccccc1NC(=S)NC(NC(C)=O)C(Cl)(Cl)Cl (stereo not drawn) | 2.3% |

| Compound | hERG current change (%, negative = inhibition) at 10uM |
| --- | --- |
| COc1ccc(NC(=O)CC2C(=O)N(c3ccccc3)C(=O)N2CCc2cccs2)cc1 (stereo not drawn) | -32.9% |
| CCn1c(=O)n(CC(=O)Nc2cccc(OC)c2)c(=O)c2ccccc21 | -42.4% |
| O=C(c1cc(F)ccc1F)N1CCC(N2CCC(C(=O)N3CCCC3)CC2)CC1 | 6.92% |
| CCC(CC)C(=O)Nc1nnc(SCC(=O)NC2CC2)s1 | 15.1% |
| CN(C)Cc1c(O)ccc2c1O/C(=C\C=C\c1ccccc1)C2=O | -15.4% |
| CC(Cc1ccccc1)NC(=O)c1cc2ccccc2o1 (stereo not drawn) | 12.6% |
| O=C(N/N=C/c1cccc(O)c1)NC1CCCCC1 | -14.7% |
| Cc1cc(C)n(-c2nc(N(C)C)nc(N(C)C)n2)n1 | 14.2% |
| Cc1cc(Br)c(NC(=O)CCl)c(Br)c1 | -6.04% |
| Cc1c(NC(=O)Nc2cccc(Cl)c2Cl)c(=O)n(-c2ccccc2)n1C | -2.84% |
| NS(=O)(=O)c1ccc(CCNC(=O)CCc2ccccc2)cc1 | 1.22% |
| COC(=O)CC1C(=O)NCCN1C(=S)Nc1cccc(C)c1 (stereo not drawn) | 4.74% |
| CCOC(=O)c1sc(NC(=O)C2CC2)cc1C | 9.19% |
| CC1=C(C(=O)N2CCOCC2)C(c2ccc(-c3ccccc3)cc2)NC(=S)N1 (stereo not drawn) | 14% |
| CC(C)N(C)Cc1nnnn1CC(=O)NCCc1cccc(C(F)(F)F)c1 | 4.67% |
| O=C(O)C1(c2ccccc2)CCN(S(=O)(=O)c2ccc(F)c(F)c2)CC1 | 2.44% |
| COc1ccc(CC(=O)Nc2ccc(C(N)=O)cc2)cc1 | 5.52% |
| O=S(=O)(c1ccc(-c2ccccn2)s1)N1CCC2(CC1)OCCO2 | 11% |
| CCOc1ccc(CCNC(=O)c2cc3sccc3n2CC)cc1OCC | -3.91% |
| O=S(=O)(Nc1ncccn1)c1ccc(NS(=O)(=O)c2cccc(Cl)c2Cl)cc1 | 49.7% |
| Cc1ccc(NC(=O)C2CCN(S(=O)(=O)c3ccc4c(c3)NC(=O)C(C)S4)CC2)c(Cl)c1 (stereo not drawn) | 10.3% |
